Experimental data reported in PubChem BioAssay AID624418 (National Center for Advancing Translational Sciences (NCATS), 2012).
Screen size: about 410,000 compounds; about 530 (0.13%) were called active. The shares of active, inactive and inconclusive entries below differ from those in the screen. The call rests on the fitted dose curve; in most records, active means well fitted inhibition curve with a large enough effect; inconclusive means small, poorly fitted or top-dose-only effect, or another doubt; inactive means no such curve, though single readings can be large or run the other way. A potency beside an inconclusive call is a rough fit, not a confirmed value.
On the % scale 0 is the no-effect control and ±100 the full control effect; potency means the concentration at half of the fitted maximal effect.

Assay: qHTS of GLP-1 Receptor Inverse Agonists: Cytotox Screen
Conditions: HEK293 cAMP-luciferase reporter cells, luminescence, 24 h; activity change, negative = inhibition: at 38.3 µM (top of the series) unless noted
Outline: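 Step one: seed cells (200 cells/uL, DMEM with 10% Nu serum, 1% pen-strep). Step two: 12-hour incubation at 37 deg C. Step three: pin 23 nL compound, incubate 24 hr. Step four: add luciferase reagent, read luminescence 12 min later.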
In the case of `COc1cccc(CNc2ccc(F)c([N+](=O)[O-])c2)c1O`, the Potency was inconclusive: 12.6 µM [inhibitor, single point]. For `CC(=O)NS(=O)(=O)c1ccc(N=c2ssc3c2-c2cc(C)ccc2NC3(C)C)cc1`, the “activity change, negative = inhibition” value was inactive: -24.9%. For `CC1CCN(C(=O)c2ccccc2SCC(=O)NCC2CCCCC2)CC1`, the “activity change, negative = inhibition” value was inactive: 10.1%. In the case of `C=CCOc1ccccc1CN1CCC(Oc2ccc(C(=O)N3CCCCC3)cc2)CC1`, the Potency was inconclusive: 14.1 µM [inhibitor, partial curve, poor fit]. For `Cc1ccc(C(C(=O)NC2CCCC2)N(Cc2ccco2)C(=O)CCC(=O)Nc2ccccn2)cc1` (configuration not stated), the Potency was inconclusive: 22.4 µM [inhibitor, single point]. In the case of `Cc1ccc(C(=O)CCS(=O)(=O)c2ccc(F)cc2)cc1`, the Potency was inconclusive: 28.2 µM [inhibitor, single point]. With `Cc1ccc(/C=C2\SC(=S)N(CC3CCCO3)C2=O)o1` (configuration not stated) the Potency was inconclusive: 28.2 µM [inhibitor, partial curve, poor fit]. With `N#Cc1cccc(C(c2nnnn2CCc2ccccc2)N2CCN(C3CCCCC3)CC2)c1` (configuration not stated) the Potency was inconclusive: 12.6 µM [inhibitor, partial curve, poor fit]. In the case of `CC(C)Oc1ccc(C(CCNCc2ccc(O)cc2)c2ccccc2)cc1` (configuration not stated), the Potency was inconclusive: 0.891 µM [inhibitor, full curve, poor fit]. For `O=C1COc2ccc(-c3cc(-c4ccc(Cl)cc4)c4c(n3)-c3ccccc3OC4)cc2N1`, the “activity change, negative = inhibition” value was inactive: -2.51%. With `CCN(CC)CCCNC(=S)N1CCN(c2nc(-c3ccccc3)cs2)CC1` the Potency was inconclusive: 11.2 µM [inhibitor, single point]. With `CSc1ccc(CCNC(=O)C2=C(C)C(=O)OC23CCCCC3)cc1` the “activity change, negative = inhibition” value was inactive: 1.02%. With `O=C(O)CC/C(=N\Nc1ccccc1[N+](=O)[O-])c1cccs1` the Potency was inconclusive: 15.8 µM [inhibitor, partial curve, poor fit]. In the case of `COc1ccccc1CN1CCC(CNS(=O)(=O)c2cc(-c3onc(C)c3C)ccc2OC)CC1`, the Potency was inconclusive: 15.8 µM [inhibitor, single point]. In the case of `Cc1cc(C(=O)CSc2ncccn2)c(C)n1Cc1ccco1`, the “activity change, negative = inhibition” value was inactive: -3.93%. In the case of `O=C(COC(=O)c1cccc(OC(F)F)c1)Nc1cc(S(=O)(=O)N2CCCC2)ccc1Cl`, the “activity change, negative = inhibition” value was inactive: -14.3%. For `CCc1cc(-c2n[nH]c(C)c2-c2nc3ccccc3n2C)c(O)cc1O`, the “activity change, negative = inhibition” value was inactive: -22.3%. In the case of `CCOc1ccc(NCc2cccn2-c2nnc(N3CCC(C(=O)NCCCN4CCCCC4CC)CC3)s2)cc1` (configuration not stated), the Potency was inconclusive: 31.6 µM [inhibitor, single point]. With `CC1(C)CC(=O)C=C(c2cc3ccccc3s2)C1` the Potency was inconclusive: 2.51 µM [inhibitor, partial curve, poor fit]. With `CC1(C(=O)Nc2ccc(Cl)cc2)Cc2c(-c3cccc(C(N)=O)c3)ccnc2O1` (configuration not stated) the Potency was inconclusive: 7.94 µM [inhibitor, partial curve, poor fit]. For `Fc1ccc(NC(=S)Nc2nccs2)cc1`, the Potency was inconclusive: 0.891 µM [inhibitor, full curve, poor fit]. With `C/C(CC1CC2=C(CC1(C)C)C(C)(C)CCC2)=N\NC(N)=S` (configuration not stated) the Potency was inconclusive: 2.51 µM [inhibitor, full curve, poor fit]. With `O=C(Nc1nc2ccccc2s1)c1ccc(N2CCCCC2)c([N+](=O)[O-])c1` the Potency was inconclusive: 8.91 µM [inhibitor, partial curve, poor fit]. With `COc1ccc(C(=O)NCc2ccccc2CN2CCCC2)cc1S(=O)(=O)Nc1ccc(C)cc1` the Potency was inconclusive: 10 µM [inhibitor, partial curve, poor fit]. For `Cc1cc(-c2ccccc2)nc(N/N=C/c2ccc(N(C)C)cc2)n1`, the Potency was inconclusive: 3.16 µM [inhibitor, full curve]. With `CCc1nnc(NC(=O)c2ccc3ccccc3n2)s1` the Potency was inconclusive: 5.01 µM [inhibitor, full curve]. For `COc1ccc(CC(=O)NC(=S)Nc2cccc(C)c2)cc1`, the Potency was inconclusive: 31.6 µM [inhibitor, partial curve, poor fit]. In the case of `CS(=O)(=O)c1ccc2nc(NC(=O)CC3CCCC3)sc2c1`, the Potency was inconclusive: 10 µM [inhibitor, single point]. With `CCOc1ccc(NS(=O)(=O)c2ccc(NC(=S)NC(=O)CC(C)C)cc2)cc1` the Potency was inconclusive: 10 µM [inhibitor, single point]. For `Cc1ncoc1C(=O)N1CCCC(C(=O)Nc2cccc(-c3ccc(F)cc3)c2)C1` (configuration not stated), the “activity change, negative = inhibition” value was inactive: -24.7%. With `CN(C)c1ccc(C=Nc2ccc(N(C)C)cc2)cc1` the “activity change, negative = inhibition” value was inactive: -28.3%. With `COC(=O)Cc1nnc(SCC(=O)Nc2ccccc2)c2ccccc12` the “activity change, negative = inhibition” value was inactive: -8.07%. With `[O-][N+]1=c2ccc(Nc3ccccc3)cc2=NC12CCCCC2` the Potency was inconclusive: 11.2 µM [inhibitor, partial curve, poor fit]. In the case of `CCOC(=O)C(C)N1C(=O)S/C(=C/c2cc(C)n(-c3ccccn3)c2C)C1=O` (configuration not stated), the “activity change, negative = inhibition” value was inactive: -34.4%. For `CCN1CCN(Cc2ccc(NC(=O)c3ccc(C)c(NC(=O)c4cccc5[nH]ccc45)c3)cc2C(F)(F)F)CC1`, the Potency was inconclusive: 28.2 µM [inhibitor, single point]. In the case of `CCCCS(=O)(=O)c1oc(-c2cccs2)nc1S(=O)(=O)c1ccc(F)cc1`, the Potency was inconclusive: 28.2 µM [inhibitor, single point]. In the case of `CCOC(CNC(=O)c1ccc(N2CCc3ccccc32)c([N+](=O)[O-])c1)OCC`, the Potency was inconclusive: 5.01 µM [inhibitor, full curve]. For `Cc1ccc(CNCCCSc2nc(C)cc(C)n2)cc1`, the “activity change, negative = inhibition” value was inactive: 4.42%. In the case of `N#Cc1ccc(-c2ccc(OCC(=O)Nc3cccnc3)cc2)cc1`, the “activity change, negative = inhibition” value was inactive: 23.4%. In the case of `CCCc1[nH]c2ccc(C#N)cc2c1CCC`, the Potency was inconclusive: 22.4 µM [inhibitor, single point]. With `O=C(NC(=S)N1CCN(c2ccc(O)cc2)CC1)c1cccs1` the Potency was inconclusive: 3.16 µM [inhibitor, partial curve, poor fit]. In the case of `O=c1c(Br)c(Br)cnn1-c1ccccc1`, the Potency was inconclusive: 11.2 µM [inhibitor, partial curve, poor fit].
